# PubChem BioAssay AID1508623 (National Center for Advancing Translational Sciences (NCATS), 2021)
# In all, about 48,000 compounds went through this assay and about 450 (0.94%) were called active. Inconclusive results (about 19%) are left out. Calls follow the shape of the dose curve; as a rule, active = well fitted inhibition curve with a large enough effect; inconclusive = small, poorly fitted or top-dose-only effect; inactive = no such curve, though single readings can be large or run the other way. Some of the results follow.
# Experiment: Primary qHTS for Identification of Small Molecule Inhibitors of Huntingtin Promoter Activity; also: nearly all actives have a fitted effect of over 50% in size
# Settings: HEK293 HTT promoter firefly luciferase reporter (activity 0% = vehicle and -100% = no light), 24 h; series mostly up to 57.5 µM; activity change, negative = inhibition: at the top concentration
# In short: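 Firefly luciferase signal from promoter-reporter HEK293 cells was scaled between vehicle (0%) and zero RLU (-100%). Compounds were tested at final concentrations of up to 57.5 uM over 24 h at 37 degrees C. PTC124 at 50 uM final served as control inhibitor.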
row,SMILES,"activity change, negative = inhibition"
1,Cc1[nH]c(C=C2C(=O)Nc3ccc(S(=O)(=O)N(C)c4cccc(Cl)c4)cc32)c(C)c1C(=O)N1CCN(C)CC1,inactive: -19.5%
2,CCN(C(=O)Cn1c(=O)n(-c2ccccc2)c(=O)c2ccc(C(=O)NCc3ccc4c(c3)OCO4)cc21)c1cccc(C)c1,inactive: -6.8%
3,Cc1cc(C)cc(OCC(=O)Nc2c(C(=O)c3ccccc3)oc3ccccc23)c1,inactive: 0%
4,O=C(CCn1c(=O)c2cccn2c2cccnc21)Nc1ccccc1C(F)(F)F,inactive: 3.8%
5,CCC(=O)N1c2ccccc2CC1C(=O)NCc1cc(OC)ccc1OC (stereo not drawn),inactive: 10%
6,CCCCn1cnc2cc(NCc3ccc(OCC)cc3)ccc21,inactive: 7.37%
7,CCCCCCCCCCCCSCCOCCO,inactive: 2.71%
8,O=C(CCC(=O)c1ccc(F)cc1)Nc1ccc(Cl)cc1,inactive: -3.94%
9,CCn1cc(S(=O)(=O)c2cccc(C)c2)c(=O)c2cc(F)c(N3CCCC(C)C3)cc21 (stereo not drawn),inactive: -12%
10,CCOc1ccc(CNC(=O)C2CCCCN2S(=O)(=O)c2ccc(F)cc2)cc1OC (stereo not drawn),inactive: -23.8% [at 11.5 µM]
11,COc1ccc(-c2nc3c(c(SC)n2)Cc2c(CO)cnc(C)c2O3)cc1,inactive: -15.5%
12,CCn1c(=O)c2cc(C(=O)NCCCN3CCN(C)CC3)sc2c2ccccc21,inactive: 17.6%
13,O=C(CSc1n[nH]c(-c2ccccc2Cl)n1)NCc1ccc(F)cc1,inactive: -12.4%
14,Cc1ccc(Nc2c(-c3ccc(Br)o3)nc3ccccn23)cc1,inactive: 0.686%
15,COc1ccc(S(=O)(=O)NCc2nc3nc(C)cc(C)n3n2)cc1,inactive: 6.14%
16,CCC(=O)Oc1c(Sc2ccc(Cl)cc2)c(C)nn1-c1ccccc1,inactive: -25.4%
17,Cc1ccc(Cl)cc1N1CCN(C(=O)Cn2ncc3c4ccccc4n(C)c3c2=O)CC1,inactive: 21.5%
18,CCOc1ccc(NC(=O)CSC2=Nc3ccccc3C3=NC(CCC(=O)NCc4ccco4)C(=O)N23)cc1 (stereo not drawn),inactive: 15.7%
19,Cc1ccc(-c2nc(CS(=O)(=O)CC(=O)Nc3ccc(Br)cc3F)c(C)o2)cc1,inactive: -12.5%
20,Cc1cc(Cl)ccc1NS(=O)(=O)c1c(C(=O)N2CCC(C)CC2)c(C)n(C)c1C,inactive: -32.1%
21,CC1CCCN(c2nc3c(-c4ccc(Cl)cc4)nnn3c3ccccc23)C1 (stereo not drawn),inactive: -20.1%
22,COc1ccc2oc(=O)c(-c3nnc(-c4ccc(C)cc4)o3)cc2c1,inactive: -14.3%
23,CCN(CC)S(=O)(=O)c1ccc2c(c1)N(CC(=O)NCc1ccccc1)C(=O)C1CCCCN21 (stereo not drawn),inactive: -23.7%
24,O=C(NCCc1csc(-c2cccnc2)n1)c1cccc(Cl)c1,inactive: -33.7%

row,SMILES,"activity change, negative = inhibition"
1,Cc1ccc2ncc(C(=O)c3ccc(C)c(C)c3)c(S(=O)(=O)c3ccc(F)cc3)c2c1,inactive: -25.7%
2,Cc1c(C)n(CCN(C)C)c2ccc(C(=O)OCCN(C)C)cc12,inactive: 4.27%
3,Cc1ccccc1Cn1c(SCc2ccc(C(=O)NC3CCCCC3)cc2)nc2ccncc21,inactive: -8.36%
4,Cc1nc(SCc2cccc(Cl)c2)nc2c1CCCC2,inactive: -7.21% [at 11.5 µM]
5,CC(C)N(Cc1nc(-c2ccc(Cl)cc2)no1)C(=O)c1ccc(C(C)(C)C)cc1,inactive: -5.84%
6,CC1=C(c2ccc(Cl)cc2)S(=O)(=O)N=C1N1CCN(c2cccc(C)c2C)CC1,inactive: -6.56%
7,Cc1cccc(NC(=O)CSc2nc3ccc(NC(=O)c4ccccc4)cc3s2)c1,inactive: -11.4%
8,COc1cccc(CN2C(=O)c3ccccc3Sc3ccc(C(=O)OCc4ccco4)cc32)c1,inactive: -26.8%
9,COc1cc(NC(=O)Cn2c(=O)cc(C)c3c(C)nn(-c4ccc(C)cc4)c32)cc(OC)c1,inactive: -25%
10,CC(=O)N1c2ccc(S(=O)(=O)N3CCCCCC3)cc2CC1C(=O)NCc1cccc(C)c1 (stereo not drawn),inactive: -6.58%
11,CCOc1ccc(-c2cc3nc(C4CCN(C(=O)OC(C)(C)C)CC4)c(C(=O)Nc4cccc(CC)c4)cn3n2)cc1,inactive: -24.8%
12,Fc1ccc(NCc2ccccc2-c2nnc(-c3ccccc3Cl)o2)cc1,inactive: 45.3%
13,Cc1ccc(CNc2nnc(C)c3nnn(Cc4ccc(F)cc4)c23)cc1,inactive: -17.7%
14,CCSc1nc2n(n1)C(c1ccc(Cl)cc1Cl)C(C(=O)Nc1ccccc1C)=C(C)N2 (stereo not drawn),inactive: -21.8%
15,Cc1ccc(-n2ccn(CC(=O)NCCc3ccccc3)c(=O)c2=O)cc1C,inactive: 19.1%
16,CC(C)(C)c1ccc(-c2nc(NC(=O)CSc3ncnc4sc5c(c34)CCCC5)ns2)cc1,inactive: 2.3%
17,Cc1ccc(-n2ncc3c(NCc4ccccc4)ncnc32)cc1Cl,inactive: 22.4%
18,COc1ccc(N2CC(NC(=O)/C=C\c3ccc4c(c3)OCO4)CC2=O)cc1OC (stereo not drawn),inactive: -14.9%
19,COc1ccc(NC(=O)CN(C)S(=O)(=O)c2ccc3c(c2)CCCN3C(C)=O)cc1,inactive: -26.8%
20,CCc1ccccc1NC(=O)Cn1cc(S(=O)(=O)N2CCCC2)c(S(=O)(=O)N2CCCC2)c1,inactive: 3.14% [at 11.5 µM]
21,O=C(c1ccco1)N(Cc1cccnc1)c1nc2c(F)cc(F)cc2s1,inactive: -7.8%
22,COc1ccccc1NC(=O)CSc1nncn2c1cc1sccc12,inactive: 5.12%
23,C[C@]12CC[C@@H]3c4ccc(O)cc4C[C@@H](CCCCCCCCCS(=O)CCCC(F)(F)C(F)(F)F)[C@H]3[C@@H]1CC[C@@H]2O (stereo partly drawn),inactive: -3.35%
24,Cc1ccccc1CNC(=O)c1ccc2nc(SCc3ccc(F)cc3)n(C)c2c1,inactive: -28.3%
